# According to the BET-seq Pho4 binding data (Le et al. 2018):
# The other results are listed elsewhere or left out. Values were computed here from the reads of four pooled replicates and scatter widely.
# Target: T1, Pho4 (S. cerevisiae) (UniProt P07270)
# T1 sequence: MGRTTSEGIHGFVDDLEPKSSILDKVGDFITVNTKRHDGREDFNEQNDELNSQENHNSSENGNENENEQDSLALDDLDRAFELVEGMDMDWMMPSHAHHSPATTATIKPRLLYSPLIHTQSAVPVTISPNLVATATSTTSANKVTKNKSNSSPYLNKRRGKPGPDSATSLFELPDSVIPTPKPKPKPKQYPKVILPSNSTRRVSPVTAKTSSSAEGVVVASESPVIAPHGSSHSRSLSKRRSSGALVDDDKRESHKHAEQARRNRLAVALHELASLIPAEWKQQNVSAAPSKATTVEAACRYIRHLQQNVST
# Assay: relative binding free energy (BET-seq); higher = weaker binding
# Details: reference: library average
row,Sequence,relative binding free energy [kcal/mol]
1,TTGTACACGTGAACGG,0.19
2,TGTCGCACGTGATTGT,-0.01
3,GGGAGCACGTGATAGG,0.04
4,GGGTACACGTGTTCTA,0.05
5,GTGTTCACGTGTTCCG,0.49
6,CTTAGCACGTGGGGGA,-0.12
7,TATTGCACGTGCCAGG,0.02
8,GGTTTCACGTGTGACT,0.34
9,TCTGTCACGTGTGCGG,0.12
10,CGGGGCACGTGCGGGA,-0.22
11,CAGTTCACGTGAAATG,0.5
12,TTTTACACGTGGGGCG,0
13,GAAGTCACGTGGAATT,0.32
14,TTATGCACGTGGTTAT,-0.12
15,TTGTACACGTGTTATA,0.16
16,AAGCACACGTGTGTGG,0.1
17,TGATACACGTGGGATG,0.06
18,CTTGGCACGTGGGGTG,-0.21
19,TATGTCACGTGGGGCA,-0.21

row,Sequence,relative binding free energy [kcal/mol]
1,GGGTACACGTGGATCG,0.03
2,GGAGGCACGTGGAAAT,0.01
3,GTAGGCACGTGGCTGT,-0.13
4,GGCGGCACGTGTGGTT,-0.03
5,TTAAACACGTGGGAGG,-0.03
6,TAGGGCACGTGTATGC,-0.15
7,TGCGTCACGTGCTATG,0.08
8,CGAGTCACGTGGGGTC,0.02
9,GTTTACACGTGCCGGT,0.14
10,TCGTGCACGTGGATTG,-0.03
11,GGGTGCACGTGCTGAG,-0.07
12,TTGTGCACGTGCAGAG,0.09
13,AAGGTCACGTGGCGTT,0.01
14,ATATGCACGTGTTTGG,0.02
15,AGGTTCACGTGAAATA,0.35
16,GTGCTCACGTGTGGCG,0.25
17,AGTACCACGTGGGGTC,0
18,ATGGGCACGTGGCACG,-0.29
19,TACTTCACGTGTGGTA,0.31

row,Sequence,relative binding free energy [kcal/mol]
1,AGATGCACGTGTGAGA,0.12
2,TAAGTCACGTGAGGAT,0.31
3,GAAGGCACGTGGGTGA,-0.2
4,AGTCTCACGTGATTTG,0.21
5,GGGTCCACGTGGCGTT,-0.11
6,TTGTGCACGTGTTAAG,0.12
7,GTTGTCACGTGAGGGA,0.3
8,TCTTTCACGTGAAGGT,0.35
9,GAGCTCACGTGTGGTT,0.26
10,GCTGTCACGTGTTGTC,0.15
11,AGGTGCACGTGTTCTA,-0.02
12,TCGCTCACGTGGGTTG,0.04
13,TAGAACACGTGTGAGT,0.1
14,CTTTGCACGTGGCTGT,-0.08
15,GAGTTCACGTGGTATT,0.27
16,GCGGGCACGTGAGTAG,0.07
17,GCTAGCACGTGGGTAT,-0.07
18,GTCTACACGTGTTTGT,0.13
19,TTCTACACGTGGGAGT,0.07
